# Reference: the supplement of paper PMC8728848
# The list shows a part of the results.
# B1: CaSRK1 (Capsicum annuum) (protein)
# chain: MALCKIFPFAFILLSCSCYLISGQRFDYPTANLSTTWINSVSAPHSIDYTDGSRIRAILLRGTFGPRYACGFYCNGNCESYLFAIFIVQTNSASQITSPAIGFPQVVWSANRNNPVKINSTLQLTAEGDLVLRDADGTLAWSTNTAGKSVAGLSLTDEGNLALFDSKNATVWQSFDHPTDALVPGQKLVPGMKLTASVSRTNWTAGGLFALSAIDNGLVAFVESNPPQKYFEASVGGSNTSGGSNYVKYLNGSLTLFTHSADTTELILISITPASSAQYMKLESNGHLKVYEWTSRGWREVDDLLTGFRGECNYPTVCGRYGICTMGQCSCPTSSSSRTYFRPIDVRRPSLGCSEVTKLTCQNTKKHSPLEVEDVDYFAFKAGISDTDLNTCKRACLEKCSCKAAFFRSGLNSSRTRGDCYLPTEIFSIMNNEKDRTRYDSVAFIKVQV
# Assays:
# Assay in all cases: glycan array binding signal (z-score within array); higher = stronger binding
# Conditions in all cases: glycan notation: IUPAC condensed, linker removed
# Fuc(a1-2)Gal = biological target: Fuc(a1-2)Gal
# In short: (§1)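 Glycan array data were curated from 3228 arrays in the Consortium for Functional Glycomics database and kept only where the protein sequence was available. Glycan names were converted to IUPAC-condensed notation, and columns mapping to the same glycan were averaged. The binding signal is a within-array Z-score, averaged across arrays of the same protein sequence at different concentrations or buffers and across linkers. Negative Z-scores can be read as non-binding.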
# Fuc(a1-2)Gal(b1-3)GalNAc = biological target: Fuc(a1-2)Gal(b1-3)GalNAc
# In short: as §1
# [1] = biological target: Fuc(a1-2)Gal(b1-3)GalNAc(a1-3)[Fuc(a1-2)]Gal(b1-4)Glc
# In short: as §1
# [2] = biological target: Fuc(a1-2)Gal(b1-3)GalNAc(a1-3)[Fuc(a1-2)]Gal(b1-4)GlcNAc
# In short: as §1
# [3] = biological target: Fuc(a1-2)Gal(b1-3)GalNAc(b1-3)Gal
# In short: as §1
# [4] = biological target: Fuc(a1-2)Gal(b1-3)GalNAc(b1-3)Gal(a1-4)Gal(b1-4)Glc
# In short: as §1
# [5] = biological target: Fuc(a1-2)Gal(b1-3)GalNAc(b1-4)[Neu5Ac(a2-3)]Gal(b1-4)Glc
# In short: as §1
# Fuc(a1-2)Gal(b1-3)GlcNAc = biological target: Fuc(a1-2)Gal(b1-3)GlcNAc
# In short: as §1
# [6] = biological target: Fuc(a1-2)Gal(b1-3)GlcNAc(b1-2)Man(a1-3)[Fuc(a1-2)Gal(b1-3)GlcNAc(b1-2)Man(a1-6)]Man(b1-4)GlcNAc(b1-4)GlcNAc
# In short: as §1
# [7] = biological target: Fuc(a1-2)Gal(b1-3)GlcNAc(b1-2)Man(a1-3)[Fuc(a1-2)Gal(b1-3)GlcNAc(b1-2)Man(a1-6)]Man(b1-4)GlcNAc(b1-4)[Fuc(a1-6)]GlcNAc
# In short: as §1
# [8] = biological target: Fuc(a1-2)Gal(b1-3)GlcNAc(b1-3)Gal(b1-4)Glc
# In short: as §1
# [9] = biological target: Fuc(a1-2)Gal(b1-3)GlcNAc(b1-3)GalNAc
# In short: as §1
# [10] = biological target: Fuc(a1-2)Gal(b1-3)GlcNAc(b1-3)[Fuc(a1-2)Gal(b1-3)GlcNAc(b1-6)]GalNAc
# In short: as §1
# [11] = biological target: Fuc(a1-2)Gal(b1-3)GlcNAc(b1-3)[Gal(b1-4)GlcNAc(b1-6)]Gal(b1-4)Glc
# In short: as §1
# [12] = biological target: Fuc(a1-2)Gal(b1-3)GlcNAc(b1-3)[Neu5Ac(a2-6)Gal(b1-4)GlcNAc(b1-6)]Gal(b1-4)Glc
# In short: as §1
# [13] = biological target: Fuc(a1-2)Gal(b1-3)GlcNAc6S
# In short: as §1
# [14] = biological target: Fuc(a1-2)Gal(b1-3)[Fuc(a1-4)]GlcNAc
# In short: as §1
# [15] = biological target: Fuc(a1-2)Gal(b1-3)[Fuc(a1-4)]GlcNAc(b1-2)Man(a1-3)[Fuc(a1-2)Gal(b1-3)[Fuc(a1-4)]GlcNAc(b1-2)Man(a1-3)]Man(b1-4)GlcNAc(b1-4)GlcNAc
# In short: as §1
# [16] = biological target: Fuc(a1-2)Gal(b1-3)[Fuc(a1-4)]GlcNAc(b1-2)Man(a1-3)[Fuc(a1-2)Gal(b1-3)[Fuc(a1-4)]GlcNAc(b1-2)Man(a1-6)]Man(b1-4)GlcNAc(b1-4)[Fuc(a1-6)]GlcNAc(b1-4)[Fuc(a1-6)]GlcNAc
# In short: as §1
# [17] = biological target: Fuc(a1-2)Gal(b1-3)[Fuc(a1-4)]GlcNAc(b1-3)[Fuc(a1-3)[Gal(b1-4)]GlcNAc(b1-6)]Gal(b1-4)Glc
# In short: as §1
# [18] = biological target: Fuc(a1-2)Gal(b1-3)[Fuc(a1-4)]GlcNAc(b1-3)[Gal(b1-4)GlcNAc(b1-6)]Gal(b1-4)Glc
# In short: as §1
# Fuc(a1-2)Gal(b1-4)Glc = biological target: Fuc(a1-2)Gal(b1-4)Glc
# In short: as §1
# Fuc(a1-2)Gal(b1-4)Glc6S = biological target: Fuc(a1-2)Gal(b1-4)Glc6S
# In short: as §1
# Fuc(a1-2)Gal(b1-4)GlcNAc = biological target: Fuc(a1-2)Gal(b1-4)GlcNAc
# In short: as §1
# [19] = biological target: Fuc(a1-2)Gal(b1-4)GlcNAc(b1-2)Man
# In short: as §1
# [20] = biological target: Fuc(a1-2)Gal(b1-4)GlcNAc(b1-2)Man(a1-3)[Fuc(a1-2)Gal(b1-4)GlcNAc(b1-2)Man(a1-6)]Man(b1-4)GlcNAc(b1-4)GlcNAc
# In short: as §1
# [21] = biological target: Fuc(a1-2)Gal(b1-4)GlcNAc(b1-2)Man(a1-3)[Fuc(a1-2)Gal(b1-4)GlcNAc(b1-2)Man(a1-6)]Man(b1-4)GlcNAc(b1-4)[Fuc(a1-6)]GlcNAc
# In short: as §1
# [22] = biological target: Fuc(a1-2)Gal(b1-4)GlcNAc(b1-2)[Fuc(a1-2)Gal(b1-4)GlcNAc(b1-4)]Man(a1-3)[Fuc(a1-2)Gal(b1-4)GlcNAc(b1-2)Man(a1-6)]Man(b1-4)GlcNAc(b1-4)GlcNAc
# In short: as §1
# [23] = biological target: Fuc(a1-2)Gal(b1-4)GlcNAc(b1-3)Gal(b1-4)GlcNAc
# In short: as §1
# [24] = biological target: Fuc(a1-2)Gal(b1-4)GlcNAc(b1-3)Gal(b1-4)GlcNAc(b1-2)Man(a1-3)[Fuc(a1-2)Gal(b1-4)GlcNAc(b1-3)Gal(b1-4)GlcNAc(b1-2)Man(a1-6)]Man(b1-4)GlcNAc(b1-4)GlcNAc
# In short: as §1
# [25] = biological target: Fuc(a1-2)Gal(b1-4)GlcNAc(b1-3)Gal(b1-4)GlcNAc(b1-3)Gal(b1-4)GlcNAc
# In short: as §1
# [26] = biological target: Fuc(a1-2)Gal(b1-4)GlcNAc(b1-3)GalNAc
# In short: as §1
# [27] = biological target: Fuc(a1-2)Gal(b1-4)GlcNAc(b1-3)[Fuc(a1-2)Gal(b1-4)GlcNAc(b1-6)]GalNAc
# In short: as §1
# [28] = biological target: Fuc(a1-2)Gal(b1-4)GlcNAc(b1-3)[Fuc(a1-3)[Gal(b1-4)]GlcNAc(b1-6)]Gal(b1-4)Glc
# In short: as §1
# [29] = biological target: Fuc(a1-2)Gal(b1-4)GlcNAc(b1-6)GalNAc
# In short: as §1
# [30] = biological target: Fuc(a1-2)Gal(b1-4)GlcNAc6S
# In short: as §1
# [31] = biological target: Fuc(a1-2)Gal(b1-4)[Fuc(a1-3)]GlcNAc
# In short: as §1
binder,measurement,setting,value
B1,glycan array binding signal (z-score),Fuc(a1-2)Gal,0.592
same,glycan array binding signal (z-score),Fuc(a1-2)Gal(b1-3)GalNAc,-0.449
same,glycan array binding signal (z-score),[1],-0.458
same,glycan array binding signal (z-score),[2],-0.12
same,glycan array binding signal (z-score),[3],1.02
same,glycan array binding signal (z-score),[4],-0.277
same,glycan array binding signal (z-score),[5],-0.483
same,glycan array binding signal (z-score),Fuc(a1-2)Gal(b1-3)GlcNAc,-0.442
same,glycan array binding signal (z-score),[6],-0.192
same,glycan array binding signal (z-score),[7],0.729
same,glycan array binding signal (z-score),[8],-0.512
same,glycan array binding signal (z-score),[9],-0.456
same,glycan array binding signal (z-score),[10],-0.29
same,glycan array binding signal (z-score),[11],-0.073
same,glycan array binding signal (z-score),[12],-0.238
same,glycan array binding signal (z-score),[13],0.428
same,glycan array binding signal (z-score),[14],-0.523
same,glycan array binding signal (z-score),[15],1.12
same,glycan array binding signal (z-score),[16],0.016
same,glycan array binding signal (z-score),[17],-0.453
same,glycan array binding signal (z-score),[18],-0.1
same,glycan array binding signal (z-score),Fuc(a1-2)Gal(b1-4)Glc,-0.142
same,glycan array binding signal (z-score),Fuc(a1-2)Gal(b1-4)Glc6S,0.141
same,glycan array binding signal (z-score),Fuc(a1-2)Gal(b1-4)GlcNAc,-0.248
same,glycan array binding signal (z-score),[19],0.3
same,glycan array binding signal (z-score),[20],-0.059
same,glycan array binding signal (z-score),[21],0.053
same,glycan array binding signal (z-score),[22],-0.164
same,glycan array binding signal (z-score),[23],-0.389
same,glycan array binding signal (z-score),[24],0.044
same,glycan array binding signal (z-score),[25],-0.431
same,glycan array binding signal (z-score),[26],-0.313
same,glycan array binding signal (z-score),[27],-0.065
same,glycan array binding signal (z-score),[28],-0.599
same,glycan array binding signal (z-score),[29],-0.17
same,glycan array binding signal (z-score),[30],-0.34
same,glycan array binding signal (z-score),[31],-0.501
